Measurements published in PubChem BioAssay AID1240 (Sanford-Burnham Center for Chemical Genomics, 2008).
In all, about 50,000 compounds went through this assay and about 800 (1.6%) showed an effect of 50% or more. The list shows a part of the results.

molecular target: Bcl-2-like protein 10 (Homo sapiens) (UniProt Q9HD36); assay: TR3 peptide-Bcl-B binding displacers, biochemical primary FP assay, phenotype converters (AID 1240); settings: GST-Bcl-B / FITC-TR3 peptide fluorescence polarization; stronger effect = higher value; compound at 3.75 mg/L;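 note: 0% = Bcl-B with tracer peptide and DMSO and 100% = tracer peptide lacking Bcl-B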
UniProt Q9HD36, sequence (Q9HD36 whole entry, looked up): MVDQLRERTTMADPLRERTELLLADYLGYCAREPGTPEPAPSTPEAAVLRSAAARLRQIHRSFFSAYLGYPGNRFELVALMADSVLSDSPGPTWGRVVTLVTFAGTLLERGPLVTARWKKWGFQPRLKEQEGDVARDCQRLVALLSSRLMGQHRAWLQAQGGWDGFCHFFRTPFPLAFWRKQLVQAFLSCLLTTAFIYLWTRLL

Row | Structure (SMILES) | displacement [%]
1 | COc1ccc(-n2nc3cc(C)c(NC(=O)c4cccc5ccccc45)cc3n2)cc1 | 2.4
2 | CC(=O)OC1(C(=O)O)C2CC3CC(C2)CC1C3 (stereo unspecified) | -4.4
3 | CC(Oc1ccccc1)C(=O)Nc1ccc(I)cc1 (stereo unspecified) | 10.1
4 | COc1cc2c(cc1OC)-c1nnc(-c3ccc(Br)o3)n1C(C)(C)C2 | -2.5
5 | O=C(c1cccc(F)c1)N1CCN(c2cc(N3CCOCC3)c(F)cc2[N+](=O)[O-])CC1 | -6.5
6 | Cc1ccc(/C(O)=C2/C(=O)C(=O)N(CCCn3ccnc3)C2c2ccccc2F)cc1 (stereo unspecified) | 9
7 | O=C(Nc1ncc(Cc2cc(Cl)ccc2Cl)s1)c1ccccc1Br | 5.4
8 | C=CCOc1ccc(/C=C2\C(=O)NC(C)=C2C(=O)OC)cc1OC | 33.1
9 | CCN(CC)CCCCOc1ccc(Cl)c(C)c1 | -10.7
10 | Fc1ccccc1/C=N/Nc1ccccn1 | 15.8
11 | Cc1ccc(N=Cc2ccc(C#N)cc2)cc1F | -9.7
12 | O=C(c1ccc(S(=O)(=O)N2CCCC2)cc1)N1CCCc2ccccc21 | 0.6
13 | CCOC(=O)c1sc(NC(=O)c2ccc(Br)s2)nc1-c1ccccc1 | -10.2
14 | CCC1CCCCN1Cc1c(O)ccc2c(=O)c(-c3ccc(Cl)cc3)coc12 (stereo unspecified) | 4.3
15 | Cc1cc(C)c(C(=O)c2ccc(C(=O)O)cc2)c(C)c1 | 3.1
16 | CCOc1ccc(NC(=O)c2c(NC(=O)c3ccco3)sc3c2CCC(C)C3)cc1 (stereo unspecified) | 1
17 | Clc1ccc(-c2nc(-c3cccnc3)no2)c(Cl)c1 | 1.1
18 | CCc1ccc(Nc2cc(C)nc3ncnn23)cc1 | 3.7
19 | CCN(CC)CCN1C(=O)C(O)=C(C(=O)/C=C/c2ccccc2)C1c1ccccc1[N+](=O)[O-] (stereo unspecified) | 3.2

Row | Structure (SMILES) | displacement [%]
20 | CCCCN1C(=O)/C(=C/c2ccc(OC)cc2OC)SC1=S | 6.8
21 | O=C(Nc1ccc(Br)cc1)c1cccc2c1C(=O)c1ccccc1-2 | 5.8
22 | CCN1C(=O)/C(=C\c2cccc(O)c2)C(C(=O)OC)=C1C | -14.6
23 | COc1cc(C=NN2CCN(Cc3ccccc3)CC2)cc(OC)c1OC | -9.5
24 | COc1cc(NC(=O)c2cccc([N+](=O)[O-])c2C)cc(OC)c1 | 4.1
25 | CCOC(=O)C1=NN(C(=O)c2cccc([N+](=O)[O-])c2)C(O)(c2ccc(Cl)cc2)C1 (stereo unspecified) | -21.4
26 | COC(=O)c1ccccc1NC(=O)c1ccc(Cl)cc1 | 1
27 | C=CCNC(=O)COc1cccc(C)c1 | 6.2
28 | O=C(NCCCN1CCOCC1)c1nn2c(c1Br)NC(c1cccs1)CC2C(F)(F)F (stereo unspecified) | 5.9
29 | O=C(NC1CCN(Cc2ccccc2)CC1)c1ccc(Br)cc1 | -16.1
30 | Clc1ccc(/C=N\N2CCN(c3ccc(Cl)cc3)CC2)cc1 | -8
31 | Cc1cccc(NC(=O)c2cc(-c3cccs3)nc3ccccc23)c1 | -3
32 | NC(=O)C1CCN(c2ccc(C(F)(F)F)cc2[N+](=O)[O-])CC1 | -0.4
33 | CN(C)c1ccc(/C=N\OC(=O)Nc2ccccc2Cl)cc1 | 7.2
34 | COc1ccc(Cl)cc1C(=O)Nc1cccc(C)c1C | -7.7
35 | COc1cc2ccccc2cc1C(=O)Nc1ccc(F)c([N+](=O)[O-])c1 | -0.4
36 | O=C1c2ccccc2C(=O)c2c(NC(=O)C3CC4CCC3C4)cccc21 (stereo unspecified) | -7.7
37 | CCS(=O)(=O)c1nc2ccc([N+](=O)[O-])cc2s1 | -7.2
38 | CCOc1cc(OCC)cc(C(=O)Nc2cccnc2)c1 | -8.3

Row | Structure (SMILES) | displacement [%]
39 | O=C(c1ccc(C#CC2(O)CCCCC2)cc1)N1CCN(c2cccc(Cl)c2)CC1 | -6.5
40 | C=C(C)CSc1nc2sc3c(c2c(=O)n1Cc1ccccc1)CCC3 | -5
41 | CCOc1ccc(NC(=O)c2c(NC(=O)COc3ccccc3)sc3c2CCC3)cc1 | -3
42 | COc1ccc(CNC(=O)C(=O)NCc2ccccc2)cc1 | 8.9
43 | O=C(Nc1ccccc1O)c1ccccc1I | -2.2
44 | OC1CC(c2ccccc2)NC2(CCCC2)C1 (stereo unspecified) | 4.5
45 | O=[N+]([O-])c1cccc(CN2CCN(S(=O)(=O)c3ccccc3)CC2)c1 | 3.2
46 | O=C(NCCC1=CCCCC1)c1ccc(Cl)c([N+](=O)[O-])c1 | -3.7
47 | COc1ccccc1CNC(=O)c1ccc(C)cc1 | -13.5
48 | COc1cc(NC(=O)c2c(Cl)cccc2Cl)c(OC)cc1Cl | 11.4
49 | CCN(CC)S(=O)(=O)c1ccc(NC(=O)c2ccco2)cc1 | -5.1
50 | CC(=O)Nc1ccc(S(=O)(=O)Nc2ccc(S(=O)(=O)N3CCCCC3)cc2)cc1 | -10.6
51 | CC(C)C(=O)Nc1ccccc1C(=O)Nc1ccc(C(=O)O)cc1 | 10.5
52 | COc1ccccc1NC(=O)CSC(N)=O | 6.3
53 | O=C(NC(NC(=S)Nc1ccccc1[N+](=O)[O-])C(Cl)(Cl)Cl)c1ccco1 (stereo unspecified) | 6.5
54 | COc1ccc(/C=C/C(=O)NC(=S)Nc2ccc(C(C)=O)cc2)cc1 | 7.4
55 | O=C(c1nn2c(c1Cl)NC(c1cccs1)CC2C(F)(F)F)N1CCN(C(c2ccccc2)c2ccccc2)CC1 (stereo unspecified) | 11.8
56 | CC1=C(C(=O)Nc2ccc(Cl)cc2)C(c2ccccc2)NC(=S)N1 (stereo unspecified) | 6.5
